# Reference: the supplement of paper PMC9446081
# In all, about 39,000 compounds went through this assay and about 220 (0.56%) showed activity. The list shows a part of the results.
# Tested on: Escherichia coli K-12 BW25113
# Assay: relative growth (OD600 normalised to plate interquartile mean) (fraction); higher = less growth inhibition, active = 0.2 or less
# Settings: 50 µM; LB; incubation time: overnight (16-24 h)
# 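Note: static incubation at 37 °C against the wild-type strain, values averaged over two biological replicates.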
row,SMILES,relative growth
1,COc1ccc(-c2ccc3c(c2)O[C@@H](CN(C)CC2CCOCC2)[C@@H](C)CN([C@@H](C)CO)S3(=O)=O)cc1,inactive: 0.991
2,COc1ccc([Si](C)(C)[C@H]2[C@H](CCO)O[C@@]3(C(=O)N(Cc4ccccc4)c4ccc(N5C(=O)c6cccc7cccc5c67)cc43)[C@@H]2C)cc1,inactive: 1.04
3,COc1ccc(NC(=O)Nc2ccc3c(c2)[C@H]2C[C@@H](CC(=O)NCc4ccccn4)O[C@H](CO)[C@H]2O3)cc1,inactive: 0.988
4,C[C@H](CO)N1C[C@H](C)[C@H](CN(C)C(=O)Nc2ccc(C(F)(F)F)cc2)Oc2ccc(NS(=O)(=O)c3ccc(F)cc3)cc2C1=O,inactive: 0.994
5,Nc1ccc(CO)cn1,inactive: 0.999
6,C[C@@H]1CCCCO[C@H](CN(C)S(=O)(=O)c2cccs2)[C@H](C)CN([C@H](C)CO)C(=O)c2cc(NS(=O)(=O)c3ccc(Cl)cc3)ccc2O1,inactive: 1.05
7,O=C(O)C=Cc1ccc(Cn2ccnc2)cc1,inactive: 0.953
8,COc1ccc(S(=O)(=O)Nc2ccc3c(c2)C(=O)N([C@@H](C)CO)C[C@@H](C)[C@@H](CN(C)S(=O)(=O)c2ccccc2)O3)cc1,inactive: 1.02
9,CCNC(=O)C[C@H]1C=C[C@@H](NC(=O)C2CCOCC2)[C@H](CO)O1,inactive: 1
10,O=C1c2ccccc2[C@@]2(Cc3ccccc3N(Cc3ccccc3)C2=O)[C@H](c2ccc(CO)cc2)N1Cc1ccccc1C(F)(F)F,inactive: 1.04
11,COc1ccccc1C#Cc1cnc2c(c1)C(=O)N([C@H](C)CO)C[C@@H](C)[C@@H](CN(C)S(=O)(=O)c1cn(C)cn1)O2,inactive: 0.996
12,COCC#Cc1ccc([C@@H]2[C@@H](CO)N3C(=O)CN(C(=O)c4cccnc4)C[C@H]23)cc1,inactive: 1.02
13,CCC(=O)N1Cc2cc(C(=O)NCc3cccc(F)c3)nc(-c3cccc(C4=CCCC4)c3)c2[C@H]1CCO,inactive: 0.996
14,CC1(C)C=Cc2cc(C#N)ccc2O1,inactive: 0.995
15,C[C@@H]1CN([C@H](C)CO)C(=O)Cc2cc(NC(=O)CCN3CCOCC3)ccc2O[C@@H]1CN(C)C(=O)NC1CCCCC1,inactive: 0.994
16,C[C@H](CO)N1C[C@H](C)[C@H](CN(C)Cc2ccc(Oc3ccccc3)cc2)Oc2c(NC(=O)Nc3ccc(C(F)(F)F)cc3)cccc2C1=O,inactive: 1.08
17,CC(C)NC(=O)N(C)C[C@H]1Oc2ccc(NC(=O)Cc3ccccc3)cc2CC(=O)N([C@@H](C)CO)C[C@H]1C,inactive: 0.978
18,Cc1ccccc1C(OCCN(C)C)c1ccccc1.O=C(O)CC(O)(CC(=O)O)C(=O)O (centres undefined),inactive: 1.01
19,C[C@@H]1CN([C@@H](C)CO)C(=O)c2cccc(NC(=O)CCCCCC(=O)Nc3ccccc3N)c2O[C@@H]1CN(C)Cc1ccc(Oc2ccccc2)cc1,inactive: 0.982
20,CCCN(C)C[C@@H]1OCCCC[C@@H](C)Oc2ccc(NC(=O)c3ccccc3)cc2C(=O)N([C@H](C)CO)C[C@@H]1C,inactive: 1.01

row,SMILES,relative growth
1,COc1cccc(S(=O)(=O)N(C)C[C@H]2Oc3cc(C#CCC(C)C)ccc3S(=O)(=O)N([C@H](C)CO)C[C@H]2C)c1,inactive: 0.926
2,C[C@@H]1CN([C@H](C)CO)C(=O)c2cc(NS(C)(=O)=O)ccc2O[C@@H](C)CCCCO[C@H]1CN(C)S(=O)(=O)c1ccccc1,inactive: 0.989
3,C[C@H]1CCCCO[C@H](CN(C)C(=O)Nc2ccc(C(F)(F)F)cc2)[C@@H](C)CN([C@@H](C)CO)C(=O)c2cc(NC(=O)CCC(F)(F)F)ccc2O1,inactive: 1.02
4,Cc1noc(C)c1S(=O)(=O)N(C)C[C@@H]1OCCCC[C@@H](C)Oc2ccc(NC(=O)Nc3ccc(C(F)(F)F)cc3)cc2C(=O)N([C@H](C)CO)C[C@@H]1C,inactive: 1.01
5,O=C(C=CC=Cc1ccc2c(c1)OCO2)N1CCCCC1,inactive: 1.02
6,C[C@@H]1COC(=O)[C@@H](NC(=O)OCC2c3ccccc3-c3ccccc32)CC=CC[C@H](CC(=O)NCCO)C(=O)N1,inactive: 1.02
7,Cc1ccc(S(=O)(=O)N(C)C[C@H]2OCCCC[C@H](C)Oc3ccc(NC(=O)CCC(F)(F)F)cc3C(=O)N([C@H](C)CO)C[C@H]2C)cc1,inactive: 0.977
8,CC(=O)N(C)C[C@@H]1Oc2ncc(C#C[C@@H](C)O)cc2C(=O)N([C@@H](C)CO)C[C@@H]1C,inactive: 1
9,CN(C)CCCNC(=O)[C@H]1[C@H](CO)[C@H]2Cn3c(ccc(-c4ccncc4)c3=O)[C@@H]1N2C(=O)C1CC1,inactive: 0.985
10,NCc1cc(-c2ccccc2Cl)no1,inactive: 0.976
11,C[C@H]1CN([C@@H](C)CO)C(=O)Cc2cc(NS(=O)(=O)c3cccs3)ccc2O[C@@H]1CN(C)Cc1ccc(Cl)c(Cl)c1,inactive: 0.987
12,Cc1ccc(S(=O)(=O)Nc2ccc3c(c2)CC(=O)N([C@@H](C)CO)C[C@H](C)[C@H](CN(C)C(=O)Nc2ccc(C(F)(F)F)cc2)O3)cc1,inactive: 1.01
13,C[C@@H]1CN([C@@H](C)CO)S(=O)(=O)c2ccc(C#C[C@@H](C)O)cc2O[C@@H]1CN(C)C(=O)Nc1ccccc1,inactive: 0.98
14,C[C@H](CO)N1C[C@H](C)[C@@H](CN(C)Cc2ccc(Cl)c(Cl)c2)Oc2ccc(NC(=O)Nc3ccc4c(c3)OCO4)cc2CC1=O,inactive: 1.01
15,C[C@@H]1CCCCO[C@@H](CN(C)C(=O)Nc2ccccc2)[C@@H](C)CN([C@H](C)CO)C(=O)c2cc(NS(=O)(=O)c3cccs3)ccc2O1,inactive: 0.875
16,O=C(c1cccnc1)N1C[C@@H]2[C@H](c3ccccc31)[C@@H](CO)N2C(=O)CN1CCOCC1,inactive: 0.988
17,CC(=O)Nc1ccc(C(C)C)c(C)c1,inactive: 0.952
18,COc1ccc(CN(C)C[C@H]2OCCCC[C@H](C)Oc3ccc(NC(=O)c4ccccc4)cc3C(=O)N([C@H](C)CO)C[C@H]2C)cc1,inactive: 0.998
19,O=C(C[C@@H]1CC[C@H]2[C@@H](COC[C@@H](O)CN2C(=O)Nc2cccc(Cl)c2)O1)NCc1ccccc1F,inactive: 0.976
